Test results taken from PubChem BioAssay AID2546 (National Center for Advancing Translational Sciences (NCATS), 2010).
The campaign covered roughly 310,000 compounds. About 11,000 (3.5%) were called active. The shares of active, inactive and inconclusive entries below differ from those in the screen. Calls come from the whole dose curve; as a rule, active = well fitted inhibition curve with a large enough effect; inconclusive = small, poorly fitted or top-dose-only effect, or effect the other way; inactive = flat fitted curve, though single readings scatter. Potencies of inconclusive entries are left out as doubtful fits.

Assay: VP16 counterscreen qHTS for inhibitors of ROR gamma transcriptional activity;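 note: Gal4-VP16 expression switched on by copper sulfate through the metallothionein promoter; nearly all actives have a fitted effect of over 50% in size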
Conditions: Drosophila S2 Gal4-VP16 UAS-luciferase, luminescence, 20 h; series mostly up to 53.6 µM
Potency is the fitted concentration of half-maximal effect; tags give direction and shape of the fitted curve.

Row | SMILES | Potency
1 | CN(CCc1cn[nH]c1)Cc1nc(Cc2ccccc2)no1 | inconclusive [inhibitor, single point]
2 | CC(=O)c1cccc(NC(=O)c2ccc(NC(=O)CCS(=O)(=O)c3cccs3)cc2)c1 | inconclusive [inhibitor, single point]
3 | CC1(C)CC2(C)OC(=N)C1(C#N)C2(C#N)C#N (stereo unspecified) | inconclusive [inhibitor, single point]
4 | CCc1cccc(C)c1NC(=S)NCc1ccc2c(c1)cc(C)n2C | active: 7.94 µM
5 | CC(C)Nc1ncnc2c1cnn2Cc1ccc(Cl)cc1 | inactive
6 | Cc1ccc(C)c(N2CN(Cc3ccco3)CNC2=S)c1 | active: 10 µM
7 | O=C(Cn1nc(-c2ccccc2)ccc1=O)NCc1ccc2c(c1)OCO2 | inactive
8 | O=C(/C=C/c1ccccc1)NC(=S)Nc1ccc(N2CCOCC2)cc1 | active: 3.16 µM
9 | CC/C=C/C(=O)N1CC2(CC(c3cccc(NC(=O)COc4ccc(Cl)cc4)c3)=NO2)C[C@H]1C(N)=O (stereo partly specified) | inconclusive [inhibitor, single point]
10 | CCOc1ccc2nc(SCC(=O)c3ccccc3)sc2c1 | inconclusive [activator, single point]
11 | FC(F)(F)c1cc(-c2ccccc2)nc(N2CCCCC2)n1 | inactive
12 | O=C(OCC(=O)N1CCOCC1)c1ccc2c(c1)OCCO2 | inactive
13 | Cc1ccc(-c2ccc(=O)n(Cc3ccc(F)cc3Cl)n2)cc1 | inactive
14 | CCc1cc(C(=O)NC2CCCN(Cc3ccccc3F)C2)n(C)n1 (stereo unspecified) | inconclusive [inhibitor, single point]
15 | C/C(=N\Nc1ccc(Cl)c(C(=O)O)c1)c1ccc[nH]1 | inactive
16 | Cc1nn(C)cc1C(=O)/C=C/c1ccc([N+](=O)[O-])cc1 | inconclusive [activator, full curve]
17 | COc1ccc(N2C(S)=C(C#N)C(=O)NC23CCCCC3)cc1 | inconclusive [inhibitor, single point]
18 | Nc1nc(-c2ccc(-c3ccccc3)cc2)cs1 | active: 22.4 µM
19 | COc1ccccc1OCC(=O)Nc1sc2c(c1C(=O)NCC1CCCO1)CCC2 (stereo unspecified) | inconclusive [inhibitor, partial curve]
20 | O=C(C1CCC1)N1CCc2cc(S(=O)(=O)NCC3COc4ccccc4O3)ccc21 (stereo unspecified) | inconclusive [inhibitor, single point]
21 | CN1/C(=C/C=N/NC(=O)c2ccc([N+](=O)[O-])cc2)C(C)(C)c2ccccc21 | active: 2.24 µM
22 | O=C(COc1ccccc1F)c1ccc(O)cc1O | inconclusive [inhibitor, single point]
23 | CN(C)CCCNC(=O)c1ccc(-c2nc(-c3ccc(Cl)cc3)cs2)cc1 | inconclusive [inhibitor, single point]
24 | CC(=O)c1ccccc1OCc1ccc(C(=O)c2ccccc2)cc1 | inconclusive [inhibitor, single point]
25 | COc1ccc(C2SCCN2C(=S)Nc2cccc(Cl)c2)cc1 (stereo unspecified) | inconclusive [inhibitor, single point]
26 | Cc1ccc(SCCNC(=S)Nc2cc(C)cc(C)c2)cc1 | active: 7.94 µM

Row | SMILES | Potency
27 | COc1ccc(S(=O)(=O)N2CCCN(CC(=O)Nc3ccc(OC)c(Cl)c3)CC2)cc1 | inactive
28 | Cc1ccc(NC(=O)c2ccc3c(c2)OCCO3)cc1 | inconclusive [inhibitor, single point]
29 | CC1CC(Nc2ccccc2)=NC1(C)C (stereo unspecified) | inactive
30 | Cc1ccc(NC(=S)N2CCCCC2CO)cc1C (stereo unspecified) | inconclusive [inhibitor, single point]
31 | CN(c1nc2ccccc2nc1Cl)S(=O)(=O)c1ccccc1 | inconclusive [activator, partial curve, poor fit]
32 | CC1(C)NC(=O)N(CN2C(=O)NC(C)(C)C2=O)C1=O | inactive
33 | CCc1nc(SCc2ccc(Br)cc2)n[nH]1 | inconclusive [activator, single point]
34 | CCCc1cc(-c2n[nH]c(=S)n2C(C)c2ccccc2)cs1 (stereo unspecified) | active: 7.08 µM
35 | CO/N=C/C(C(C)=O)C(=O)Nc1ccc(Cl)cc1Cl (stereo unspecified) | inconclusive [inhibitor, single point]
36 | Cc1ccc(NC(=S)NNC(=O)C2CC2c2ccc(C)cc2)cc1 (stereo unspecified) | inconclusive [inhibitor, single point]
37 | Cc1ccc(C2CC2c2n[nH]c(=S)n2-c2cccc(C)c2)cc1 (stereo unspecified) | active: 6.31 µM
38 | Cc1onc(-c2c(F)cccc2Cl)c1C(=O)Nc1nnc(-c2ccccc2)s1 | inconclusive [inhibitor, single point]
39 | CCOC(=O)CC1CCCCN1C(=O)c1cc(COc2cccc3cnccc23)on1 (stereo unspecified) | active: 3.98 µM
40 | COc1ccc(C(=O)NC(C)c2ccc(-n3ccnc3)cc2)cc1[N+](=O)[O-] (stereo unspecified) | inconclusive [inhibitor, single point]
41 | NCC/C=C1/c2ccccc2CSc2ccccc21 | inactive
42 | Fc1ccc(CN(Cc2ccccc2)C(c2cccs2)c2nnnn2C2CCCCC2)cc1 (stereo unspecified) | inconclusive [inhibitor, single point]
43 | CCN(CC)c1ccc(/C=N/Nc2nc(C)cc(=O)[nH]2)c(O)c1 | active: 3.16 µM
44 | COc1ccc(CN(C)CC(=O)Nc2ccc(SC(F)F)cc2)cc1OC | inconclusive [inhibitor, single point]
45 | S=c1[nH]nc(CSc2nc3ccccc3s2)o1 | inconclusive [inhibitor, single point]
46 | Cn1cccc1/C=N/NC(=O)c1cccs1 | inconclusive [inhibitor, single point]
47 | COc1ccc2c(c1)CCc1c(C(=O)Nc3ccc(OC)c(OC)c3)noc1-2 | inconclusive [inhibitor, partial curve]
48 | CCC1(CC)C(=O)C(C)(C)C(=O)OC1c1cccs1 (stereo unspecified) | inactive
49 | Cc1ccc(/C=N/NC(=O)Cc2ccc(Cl)cc2)c(O)c1 | active: 0.562 µM
50 | COCCNS(=O)(=O)c1ccc2c(c1)oc(=O)c1cc(S(=O)(=O)NCCOC)ccc12 | inactive
51 | CCOc1cccc(/C=N/NS(=O)(=O)c2ccc(C)c([N+](=O)[O-])c2)c1O | active: 3.16 µM
52 | O=C(O)c1c2c(nc3ccccc13)/C(=C/c1ccc(O)cc1)CC2 | active: 12.6 µM

Row | SMILES | Potency
53 | O=C(Cc1ccc(-n2cccc2)cc1)NCc1cccs1 | inactive
54 | CC(=O)Oc1ccc2c(c1)CCC1C2CC[C@]2(C)C(OC(C)=O)CCC12 (stereo partly specified) | inconclusive [inhibitor, single point]
55 | CC(C)c1ccccc1NC(=O)COC(=O)/C=C/c1cccc([N+](=O)[O-])c1 | inactive
56 | CCN1CCN(C(=O)CS(=O)Cc2nc(-c3ccc(OC)cc3)oc2C)CC1 (stereo unspecified) | inconclusive [inhibitor, single point]
57 | CCOc1cccc(C(=O)NC(=S)NCc2cccnc2)c1 | inconclusive [inhibitor, single point]
58 | Cc1ccc(Cn2c(=N)n(CC(=O)c3ccc([N+](=O)[O-])cc3)c3ccccc32)cc1 | inactive
59 | CCOc1cc(C(=O)NC(C)C2CCCO2)cc(OCC)c1OCC (stereo unspecified) | inactive
60 | Cc1ccc(CS(=O)(=O)Cc2ccc(C(=O)NCc3ccccn3)o2)cc1 | inconclusive [inhibitor, single point]
61 | Cn1c(CCCOc2ccc(Cl)cc2Cl)n[nH]c1=S | inconclusive [inhibitor, single point]
62 | O=C(Cn1nnc2ccccc21)NCc1ccccc1 | inconclusive [inhibitor, partial curve]
63 | O=c1[nH]cnc2scc(-c3ccc(-c4ccccc4)cc3)c12 | inconclusive [inhibitor, single point]
64 | O=C(C[n+]1cc(-c2ccc(F)cc2)n2c1CCC2)N1c2ccccc2Sc2ccccc21 | inactive
65 | COc1cc(C(C[N+](=O)[O-])c2c(C)cc3ccccn23)ccc1O (stereo unspecified) | inconclusive [inhibitor, single point]
66 | CN(C[C@H](Cc1ccccc1)N(C[C@H](Cc1ccccc1)N(CC1(c2ccccc2)CC1)N=O)N=O)N=O | inactive
67 | c1ccc(SCc2nc3ccccc3s2)nc1 | inconclusive [activator, partial curve]
68 | C=CCn1c(CNc2ccccc2)nnc1SCC(=O)N/N=C/c1ccccc1O | active: 15.8 µM
69 | COc1ccc(CCNC(=O)c2cc(-c3ccc(Cl)c(Cl)c3)oc2C)cc1 | inconclusive [inhibitor, single point]
70 | Cc1cc(C(=O)COc2ccccc2C(N)=O)c(C)n1C1CC1 | inactive
71 | O=C(/C=C/c1ccc2c(c1)OCO2)c1ccccn1 | inconclusive [inhibitor, single point]
72 | COc1cc2[nH]c(C(=O)Nc3ccc4c(c3)OCCO4)cc2c(OC)c1OC | inconclusive [inhibitor, single point]
73 | CC1=NN(C(=O)Cn2nc([N+](=O)[O-])cc2C)C(O)(C(F)(F)F)C1 (stereo unspecified) | inconclusive [inhibitor, single point]
74 | O=C(Nc1nccs1)c1cc2sccc2n1Cc1ccc(F)cc1 | inactive
75 | CC1(C)CCC2=C(O1)c1ccccc1C(=O)C2=O | active: 5.62 µM
76 | COCCn1c(=S)[nH]c2cc(C(=O)N3CCN(c4ccccc4OC)CC3)ccc2c1=O | inconclusive [inhibitor, single point]
